In publication PMC3084854:
No constants are given. Whether binding was seen depends on the method and setting. In cells and extracts the contact can be indirect. Some results given as binding are weak or reduced against the parent protein; the word gives no strength.

Protein sequences, listed by entry. Tags and fused reporters are not part of them. Lines headed by an entry give the natural chain unless they say otherwise; changes in a name come on top.
UniProt Q15672: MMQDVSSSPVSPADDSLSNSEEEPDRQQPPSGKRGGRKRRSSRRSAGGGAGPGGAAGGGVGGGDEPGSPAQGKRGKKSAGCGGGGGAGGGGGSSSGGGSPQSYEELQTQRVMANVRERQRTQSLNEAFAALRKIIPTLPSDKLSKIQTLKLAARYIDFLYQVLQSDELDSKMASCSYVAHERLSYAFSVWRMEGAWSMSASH
UniProt P68400: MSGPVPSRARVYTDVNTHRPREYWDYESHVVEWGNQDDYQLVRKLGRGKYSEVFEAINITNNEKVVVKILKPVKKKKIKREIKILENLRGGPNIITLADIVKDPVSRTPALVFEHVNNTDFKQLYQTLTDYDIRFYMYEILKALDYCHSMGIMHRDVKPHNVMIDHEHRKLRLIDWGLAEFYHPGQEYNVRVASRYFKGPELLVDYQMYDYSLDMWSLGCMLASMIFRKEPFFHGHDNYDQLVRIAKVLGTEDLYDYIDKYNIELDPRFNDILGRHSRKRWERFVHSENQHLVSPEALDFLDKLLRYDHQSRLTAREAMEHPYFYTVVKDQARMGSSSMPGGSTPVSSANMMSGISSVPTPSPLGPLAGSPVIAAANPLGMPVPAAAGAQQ

How the values were obtained:
[1] = target: wild-type Myc-Twist (HEK 293T, transient) (human (by the printed RefSeq NM_000474; not said in words)) (UniProt Q15672); assay: co-IP; lysates of HEK 293T cells transfected with both WT Myc-Twist and CK2α; immunoprecipitation with Myc antibody or with CK2α antibody, western blot; nonspecific IgG as control
[2] = target: wild-type Myc-Twist stably expressed in HN31 SCCHN cells (human (by the printed RefSeq NM_000474; not said in words)) (UniProt Q15672); assay: co-IP; lysates of HN31 cells stably expressing Myc-Twist; immunoprecipitation with Myc antibody, western blot for endogenous CK2α; also after IL-6 (20 ng/ml, 20 min), which increased the co-precipitated CK2α
[3] = target: wild-type Myc-Twist stably expressed in HN31 SCCHN cells (human (by the printed RefSeq NM_000474; not said in words)) (UniProt Q15672); assay: condition: only cells pretreated with tocilizumab (50 ng/ml, 45 min) to block IL-6 signaling; co-IP; lysates of HN31 cells stably expressing Myc-Twist, pretreated with the anti-IL-6 receptor antibody tocilizumab (50 ng/ml, 45 min); immunoprecipitation with Myc antibody, western blot for endogenous CK2α
[4] = target: endogenous CK2α in FaDu SCCHN cells (human (endogenous in FaDu)) (UniProt P68400); assay: co-IP; FaDu cell lysate, endogenous proteins; immunoprecipitation with anti-CK2α antibody, western blot for Twist
[5] = target: CK2α (catalytic subunit of casein kinase 2), overexpressed in HEK 293T (human (by the printed RefSeq NM_001895; not said in words)) (UniProt P68400); assay: co-IP; lysates of HEK 293T cells transfected with both WT Myc-Twist and CK2α; immunoprecipitation with Myc antibody or with CK2α antibody, western blot; nonspecific IgG as control

## CK2α (catalytic subunit of casein kinase 2), overexpressed in HEK 293T (from UniProt P68400-1 1-391) (enzyme)
[1]
  binding: binds

## endogenous CK2α in HN31 Myc-Twist SCCHN cells (from UniProt P68400 1-391) (enzyme)
[2]
  binding: binds
[3]
  binding: no binding

## endogenous Twist in FaDu SCCHN cells (from UniProt Q15672 1-202)
[4]
  binding: binds

## wild-type Myc-Twist (HEK 293T, transient) (from UniProt Q15672 1-202)
[5]
  binding: binds
